The source of these data is patent US20260097129A1, “ANTIBODY-DRUG CONJUGATE COMPRISING DRUG AND ANTIBODY SPECIFICALLY BINDING TO GRP94 OR ANTIGEN-BINDING FRAGMENT THEREOF” (KOOKMIN UNIVERSITY INDUSTRY ACADEMY COOPERATION FOUNDATION, priority 2022, published 2026).

This assay deals with HCT116 cells. Kind of assay: Antibody internalization, FabFluor-pH Red labeling, Incucyte live cell imaging. Type of assay: cell-based, human. The note with it: labeled antibody 2 μg/mL, imaged for 10 hours, Example 2, FIG. 10. The procedure: Antibody internalization in HCT116 cells was measured using the FabFluor-pH Red Antibody Labeling Reagent (Sartorius, Gottingen, Germany) according to the manufacturer's instructions. […] HCT116 cells were seeded at a density of 10,000 cells/well in a 96-well culture plate and allowed to adhere overnight. The control IgG, K101.1, or trastuzumab (MedChemExpress, Princeton, NJ, USA) were individually labeled with the human FabFluor-pH Red antibody labeling reagent at a 1:3 molar ratio in PBS and incubated for 15 minutes. The labeled antibodies were added to the cell culture medium at a final concentration of 2 μg/ml. The plate was transferred to the Incucyte SX1 live cell analysis system (Sartorius) and images were captured with a 10× objective lens for 12 hours. The fluorescence intensity was individually measured for each image.
The internalization of antibodies in HCT116 cells was measured using the FabFluor-pH Red antibody labeling reagent (Sartorius, Göttingen, Germany) according to the manufacturer's instructions. […] However, after internalization of the reagent-labeled antibody, the fluorescence intensity increases under the acidic conditions inside endosomes and lysosomes. HCT116 cells were seeded at a density of 10,000 cells per well in a 96-well culture plate and allowed to attach overnight. […] Fluorescence intensity was then measured.

B1: K101.3: GRP94-specific IgG antibody, CDRs SEQ ID NO: 9-14, VH SEQ ID NO: 15, VL SEQ ID NO: 16 (antibody, V domains shown)
VH: EVQLLESGGGLVQPGGSLRLSCAASGFTFSGYAMSWVRQAPGKGLEWVSAISHGGSSKYYADSVKGRFTISRDNSKNTLYLQMNSLRAEDTAVYYCAKDLLSPLQSIGSYDDAMDVWGQGTLVTVSS
VL: QSVLTQPPSASGTPGQRVTISCSGSSSNIGSNTVSWYQQLPGTAPKLLIYADNNRPSGVPDRFSGSKSGTSASLAISGLRSEDEADYYCASWDDSLNAYVFGGGTKLTVL
Consider B1, for which the “antibody internalization (FabFluor fluorescence intensity)” value is listed as “exhibited stronger internalization than trastuzumab”.
